# Assay results from the supplement of paper PMC12217912.
# Some of the results follow. The full chains were built here from the parent and the listed change. Values near 0.05 are background.
# B1: TEV protease; numbered along this chain (parent)
# chain: MGESLFKGPRDYNPISSSICHLTNESDGHTTSLYGIGFGPFIITNKHLFRRNNGTLVVQSLHGVFKVKDTTTLQQHLVDGRDMIIIRMPKDFPPFPQKLKFREPQREERICLVTTNFQTKSMSSMVSDTSCTFPSGDGIFWKHWIQTKDGQCGSPLVSTRDGFIVGIHSASNFTNTNNYFTSVPKNFMELLTNQEAQQWVSGWRLNADSVLWGGHKVFMVKPEEPFQPVKEATQL
# Variants of: B1
# Assay: raw area under fraction-flipped curve 0-4 h after induction (AUC4h, not background-subtracted), DNA-recorder readout of cleavage of the substrate (dimensionless); higher = more cleavage of the substrate by the protease variant
# Settings: temperature: 34 °C; time window: 0-4 h after rhamnose induction
# Experimental: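 In vivo DNA recorder in E. coli TOP10(DE3) ΔrhaA at 34 °C. Each TEVp single-site mutant (parent TEVp 0) is paired with a single-site variant of the 7-mer TEVs (canonical ENLYFQ|S). The substrate sits between flexible linkers in a Bxb1-sfGFP-TEVs-SsrA fusion, so cleavage stabilises Bxb1 and speeds flipping of a recombination array, read by NGS. The value is the raw area under the fraction-flipped curve over 0-4 h after rhamnose induction (AUC4h), with ≥20 reads per time point. It is not background-subtracted; inactive controls average about 0.047.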
# 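Note: Bxb1 expression induced with 0.2% (w/v) L-rhamnose at OD600 near 0.5, cultures sampled hourly, flipped fraction per protease–substrate barcode pair counted by paired-end Illumina sequencing.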
Variant,area with substrate ENAYFQS,area with substrate ENDYFQS,area with substrate ENEYFQS,area with substrate ENGYFQS,area with substrate ENKYFQS,area with substrate ENMYFQS,area with substrate ENNYFQS,area with substrate ENPYFQS,area with substrate ENQYFQS,area with substrate ENSYFQS,area with substrate ENTYFQS,area with substrate ENFYFQS,area with substrate ENHYFQS,area with substrate ENRYFQS,area with substrate ENVYFQS,area with substrate ENCYFQS,area with substrate ENWYFQS,area with substrate ENYYFQS,area with substrate ENIYFQS
MGESLFKGPRDYNPISSSICHLTNESDGHTTSLYGIGFGPFIITNKHLFRRNNGTLVVQSLHGVFKVKDTTTLQQHLVDGRDMIIIRMPKDFPPFPQKLKFREPQREERICLVTTNFQTKSVSSMVSDTSCTFPSGDGIFWKHWIQTKDGQCGSPLVSTRDGFIVGIHSASNFTNTNNYFTSVPKNFMELLTNQEAQQWVSGWRLNADSVLWGGHKVFMVKPEEPFQPVKEATQL [M122V],0.0599,0.0626,0.0649,0.0717,0.0676,0.0556,0.0652,0.0655,0.0591,0.0682,0.0612,,,,,,,,
MGESLFKGPRDYNPISSSICHLTNESDGHTTSLYGIGFGPFIITNKHLFRRNNGTLVVQSLHGVFKVKDTTTLQQHLVDGRDMIIIRMPKDFPPFPQKLKFREPQREERICLVTTNFQTKSMNSMVSDTSCTFPSGDGIFWKHWIQTKDGQCGSPLVSTRDGFIVGIHSASNFTNTNNYFTSVPKNFMELLTNQEAQQWVSGWRLNADSVLWGGHKVFMVKPEEPFQPVKEATQL [S123N],0.0674,0.0706,0.0688,0.0638,,0.0753,0.0631,,0.0612,0.0626,0.048,0.0575,0.0614,0.0762,0.0959,,,,
MGESLFKGPRDYNPISSSICHLTNESDGHTTSLYGIGFGPFIITNKHLFRRNNGTLVVQSLHGVFKVKDTTTLQQHLVDGRDMIIIRMPKDFPPFPQKLKFREPQREERICLVTTNFQTKSMSSMCSDTSCTFPSGDGIFWKHWIQTKDGQCGSPLVSTRDGFIVGIHSASNFTNTNNYFTSVPKNFMELLTNQEAQQWVSGWRLNADSVLWGGHKVFMVKPEEPFQPVKEATQL [V126C],0.067,,,0.0799,,,,,0.0594,0.0697,0.0552,,0,0.0492,0.0726,0.0759,,,
MGESLFKGPRDYNPISSSICHLTNESDGHTTSLYGIGFGPFIITNKHLFRRNNGTLVVQSLHGVFKVKDTTTLQQHLVDGRDMIIIRMPKDFPPFPQKLKFREPQREERICLVTTNFQTKSMSSMVIDTSCTFPSGDGIFWKHWIQTKDGQCGSPLVSTRDGFIVGIHSASNFTNTNNYFTSVPKNFMELLTNQEAQQWVSGWRLNADSVLWGGHKVFMVKPEEPFQPVKEATQL [S127I],0.0666,0.0488,,0.0624,0.0491,,0.0583,0.0615,0.0547,0.0576,0.0524,0.0599,0.0489,0.0645,0.0959,0.0466,0.0081,0.0464,
MGESLFKGPRDYNPISSSICHLTNESDGHTTSLYGIGFGPFIITNKHLFRRNNGTLVVQSLHGVFKVKDTTTLQQHLVDGRDMIIIRMPKDFPPFPQKLKFREPQREERICLVTTNFQTKSMSSMVLDTSCTFPSGDGIFWKHWIQTKDGQCGSPLVSTRDGFIVGIHSASNFTNTNNYFTSVPKNFMELLTNQEAQQWVSGWRLNADSVLWGGHKVFMVKPEEPFQPVKEATQL [S127L],0.0636,,,0.0753,,0.0897,0.0717,,,,,0.062,0.0553,0.0624,0.0797,,,0.0758,
MGESLFKGPRDYNPISSSICHLTNESDGHTTSLYGIGFGPFIITNKHLFRRNNGTLVVQSLHGVFKVKDTTTLQQHLVDGRDMIIIRMPKDFPPFPQKLKFREPQREERICLVTTNFQTKSMSSMVSDLSCTFPSGDGIFWKHWIQTKDGQCGSPLVSTRDGFIVGIHSASNFTNTNNYFTSVPKNFMELLTNQEAQQWVSGWRLNADSVLWGGHKVFMVKPEEPFQPVKEATQL [T129L],0.0715,0.0519,0.0575,0.049,0.0644,,,0.0549,0.0331,0.0704,0.0419,,0.0944,0.0601,0.0883,0.0337,0.0086,,0.1
MGESLFKGPRDYNPISSSICHLTNESDGHTTSLYGIGFGPFIITNKHLFRRNNGTLVVQSLHGVFKVKDTTTLQQHLVDGRDMIIIRMPKDFPPFPQKLKFREPQREERICLVTTNFQTKSMSSMVSDTECTFPSGDGIFWKHWIQTKDGQCGSPLVSTRDGFIVGIHSASNFTNTNNYFTSVPKNFMELLTNQEAQQWVSGWRLNADSVLWGGHKVFMVKPEEPFQPVKEATQL [S130E],0.033,0.0518,0.0421,,,,0.0616,,,0.0691,,0.0729,,,0.0751,,,0.0673,
MGESLFKGPRDYNPISSSICHLTNESDGHTTSLYGIGFGPFIITNKHLFRRNNGTLVVQSLHGVFKVKDTTTLQQHLVDGRDMIIIRMPKDFPPFPQKLKFREPQREERICLVTTNFQTKSMSSMVSDTVCTFPSGDGIFWKHWIQTKDGQCGSPLVSTRDGFIVGIHSASNFTNTNNYFTSVPKNFMELLTNQEAQQWVSGWRLNADSVLWGGHKVFMVKPEEPFQPVKEATQL [S130V],0.0584,0.0621,0.0618,0.0523,0.0663,,0.0714,0.0585,0.0645,0.0591,0.0663,0.067,0.0673,0.07,,0.0689,0.0558,,0.125
MGESLFKGPRDYNPISSSICHLTNESDGHTTSLYGIGFGPFIITNKHLFRRNNGTLVVQSLHGVFKVKDTTTLQQHLVDGRDMIIIRMPKDFPPFPQKLKFREPQREERICLVTTNFQTKSMSSMVSDTSMTFPSGDGIFWKHWIQTKDGQCGSPLVSTRDGFIVGIHSASNFTNTNNYFTSVPKNFMELLTNQEAQQWVSGWRLNADSVLWGGHKVFMVKPEEPFQPVKEATQL [C131M],0.0601,,0.0786,0.0678,,,,,0.0635,0.058,,0.0653,,,,0.0772,0.0083,,0.0966
MGESLFKGPRDYNPISSSICHLTNESDGHTTSLYGIGFGPFIITNKHLFRRNNGTLVVQSLHGVFKVKDTTTLQQHLVDGRDMIIIRMPKDFPPFPQKLKFREPQREERICLVTTNFQTKSMSSMVSDTSCCFPSGDGIFWKHWIQTKDGQCGSPLVSTRDGFIVGIHSASNFTNTNNYFTSVPKNFMELLTNQEAQQWVSGWRLNADSVLWGGHKVFMVKPEEPFQPVKEATQL [T132C],0.0597,0.0567,,0.0739,,,0.0544,0.0354,0.0528,0.0574,,0.0956,,0.0576,0.0692,0.0795,,,0.111
MGESLFKGPRDYNPISSSICHLTNESDGHTTSLYGIGFGPFIITNKHLFRRNNGTLVVQSLHGVFKVKDTTTLQQHLVDGRDMIIIRMPKDFPPFPQKLKFREPQREERICLVTTNFQTKSMSSMVSDTSCEFPSGDGIFWKHWIQTKDGQCGSPLVSTRDGFIVGIHSASNFTNTNNYFTSVPKNFMELLTNQEAQQWVSGWRLNADSVLWGGHKVFMVKPEEPFQPVKEATQL [T132E],0.0618,0.056,,0.055,,,0.008,,0.0887,0.0528,0.0637,0.0527,0.0545,0.0394,0.0603,0.052,0.0126,0.0561,
MGESLFKGPRDYNPISSSICHLTNESDGHTTSLYGIGFGPFIITNKHLFRRNNGTLVVQSLHGVFKVKDTTTLQQHLVDGRDMIIIRMPKDFPPFPQKLKFREPQREERICLVTTNFQTKSMSSMVSDTSCTLPSGDGIFWKHWIQTKDGQCGSPLVSTRDGFIVGIHSASNFTNTNNYFTSVPKNFMELLTNQEAQQWVSGWRLNADSVLWGGHKVFMVKPEEPFQPVKEATQL [F133L],0.0739,,0.0564,0.0516,0.0495,,0.0654,,0.0487,0.0798,0.0592,,0.0454,,0.0825,,,0.0481,0.085
MGESLFKGPRDYNPISSSICHLTNESDGHTTSLYGIGFGPFIITNKHLFRRNNGTLVVQSLHGVFKVKDTTTLQQHLVDGRDMIIIRMPKDFPPFPQKLKFREPQREERICLVTTNFQTKSMSSMVSDTSCTMPSGDGIFWKHWIQTKDGQCGSPLVSTRDGFIVGIHSASNFTNTNNYFTSVPKNFMELLTNQEAQQWVSGWRLNADSVLWGGHKVFMVKPEEPFQPVKEATQL [F133M],0.0622,,0.0658,0.0751,,0.0752,,0.0565,0.0667,0.0564,,,0.0706,0.059,0.0837,0.0717,,,0.107
MGESLFKGPRDYNPISSSICHLTNESDGHTTSLYGIGFGPFIITNKHLFRRNNGTLVVQSLHGVFKVKDTTTLQQHLVDGRDMIIIRMPKDFPPFPQKLKFREPQREERICLVTTNFQTKSMSSMVSDTSCTPPSGDGIFWKHWIQTKDGQCGSPLVSTRDGFIVGIHSASNFTNTNNYFTSVPKNFMELLTNQEAQQWVSGWRLNADSVLWGGHKVFMVKPEEPFQPVKEATQL [F133P],0.0628,0.0543,0.06,0.0453,0.0481,,0.059,0.0501,0.019,0.0533,,0.0642,,0.0346,0.0551,0.0619,,0.052,0.0745
MGESLFKGPRDYNPISSSICHLTNESDGHTTSLYGIGFGPFIITNKHLFRRNNGTLVVQSLHGVFKVKDTTTLQQHLVDGRDMIIIRMPKDFPPFPQKLKFREPQREERICLVTTNFQTKSMSSMVSDTSCTFQSGDGIFWKHWIQTKDGQCGSPLVSTRDGFIVGIHSASNFTNTNNYFTSVPKNFMELLTNQEAQQWVSGWRLNADSVLWGGHKVFMVKPEEPFQPVKEATQL [P134Q],0.0692,0.0673,0.074,0.0504,0.0554,,0.0604,,0.043,0.0489,,0.0685,,0.159,,0.0709,,,0.0886
MGESLFKGPRDYNPISSSICHLTNESDGHTTSLYGIGFGPFIITNKHLFRRNNGTLVVQSLHGVFKVKDTTTLQQHLVDGRDMIIIRMPKDFPPFPQKLKFREPQREERICLVTTNFQTKSMSSMVSDTSCTFPFGDGIFWKHWIQTKDGQCGSPLVSTRDGFIVGIHSASNFTNTNNYFTSVPKNFMELLTNQEAQQWVSGWRLNADSVLWGGHKVFMVKPEEPFQPVKEATQL [S135F],0.0684,0.0627,0.0615,0.0696,,,0.0653,0.0569,0.0691,0.0796,0.073,,0.0597,0.0585,0.0644,0.0647,0.056,0.061,
MGESLFKGPRDYNPISSSICHLTNESDGHTTSLYGIGFGPFIITNKHLFRRNNGTLVVQSLHGVFKVKDTTTLQQHLVDGRDMIIIRMPKDFPPFPQKLKFREPQREERICLVTTNFQTKSMSSMVSDTSCTFPKGDGIFWKHWIQTKDGQCGSPLVSTRDGFIVGIHSASNFTNTNNYFTSVPKNFMELLTNQEAQQWVSGWRLNADSVLWGGHKVFMVKPEEPFQPVKEATQL [S135K],0.0618,0.0626,0.0673,,,,0.074,,0.0662,0.0064,0.0615,0.06,0.05,0.0483,0.0512,0.0556,0.0769,0.0549,0.0632
MGESLFKGPRDYNPISSSICHLTNESDGHTTSLYGIGFGPFIITNKHLFRRNNGTLVVQSLHGVFKVKDTTTLQQHLVDGRDMIIIRMPKDFPPFPQKLKFREPQREERICLVTTNFQTKSMSSMVSDTSCTFPNGDGIFWKHWIQTKDGQCGSPLVSTRDGFIVGIHSASNFTNTNNYFTSVPKNFMELLTNQEAQQWVSGWRLNADSVLWGGHKVFMVKPEEPFQPVKEATQL [S135N],0.064,0.0675,0.0582,0.0637,0.0616,,0.0566,0.0556,0.0435,0.0769,0.0588,0.0618,0.0593,0.0568,0.0673,,0.0615,0.0605,
